For 113 compounds, z-score results are on record in PubChem BioAssay AID488969 (Vanderbilt High Throughput Screening Facility, 2010).

In all, about 110,000 compounds were measured (“z-score”: median about -0.1, highest 2% from about 2 on). Some of the results follow. Active and inactive are the calls of the source.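 The calls were made as follows: active = z-score in the third read window above 3 or below -3; inactive = the rest.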

The target of the assay is Metabotropic glutamate receptor 8 (Rattus norvegicus) (UniProt P70579). As to the kind of experiment: rat mGluR8 modulators via GIRK flux, primary screen, cell-based, thallium flux, HTS (AID 488969). The settings on record: HEK293 rat mGluR8, GIRK (G protein-gated inwardly rectifying potassium channel) thallium flux, FluoZin2; at 10 µM; stronger effect = higher value; submaximal glutamate (EC20) added with thallium.
Sequence of UniProt P70579 (P70579 whole entry, looked up): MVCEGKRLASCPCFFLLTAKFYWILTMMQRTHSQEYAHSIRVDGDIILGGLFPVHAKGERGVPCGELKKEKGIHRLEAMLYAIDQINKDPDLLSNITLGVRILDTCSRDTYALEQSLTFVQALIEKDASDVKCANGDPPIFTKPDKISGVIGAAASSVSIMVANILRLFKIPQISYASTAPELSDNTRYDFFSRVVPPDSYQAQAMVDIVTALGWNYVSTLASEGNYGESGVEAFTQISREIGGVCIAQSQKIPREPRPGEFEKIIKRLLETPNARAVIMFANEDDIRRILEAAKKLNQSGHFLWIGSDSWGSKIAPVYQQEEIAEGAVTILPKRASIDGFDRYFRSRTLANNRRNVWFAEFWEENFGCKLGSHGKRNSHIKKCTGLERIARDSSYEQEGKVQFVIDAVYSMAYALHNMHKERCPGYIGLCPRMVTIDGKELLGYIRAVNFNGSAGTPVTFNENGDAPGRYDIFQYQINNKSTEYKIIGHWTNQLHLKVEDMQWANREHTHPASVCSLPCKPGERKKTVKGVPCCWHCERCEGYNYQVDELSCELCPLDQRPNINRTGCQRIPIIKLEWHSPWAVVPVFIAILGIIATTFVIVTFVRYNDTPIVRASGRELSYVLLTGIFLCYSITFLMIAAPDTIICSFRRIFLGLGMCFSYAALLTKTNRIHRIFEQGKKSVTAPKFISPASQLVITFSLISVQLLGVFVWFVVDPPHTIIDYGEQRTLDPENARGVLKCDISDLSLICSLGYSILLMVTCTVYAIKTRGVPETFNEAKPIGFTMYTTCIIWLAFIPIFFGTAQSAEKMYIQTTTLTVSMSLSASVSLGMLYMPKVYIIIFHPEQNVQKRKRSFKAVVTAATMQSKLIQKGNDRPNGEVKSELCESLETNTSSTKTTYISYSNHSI
On to `COC(=O)c1cccc(NC(=O)/C(=C\c2ccccc2)NC(=O)c2ccccc2Cl)c1`, for which the z-score was -0.15. As to `Nc1c(C(=O)c2ccc(F)cc2)oc2ccccc12`, the z-score was -0.245. The compound `Cc1nc2ccccc2c(=O)n1NS(C)(=O)=O` displayed a z-score of -0.245.

On to `CC(=O)Nc1ccc(NC(=O)c2ccccc2N(C)S(C)(=O)=O)cc1`, for which the z-score is 0.366. In the case of `COCc1cc(C)nc(Nc2cc(C)ccc2C)c1C#N` it was -0.116. Under `c1csc(CNc2ncnc3sccc23)c1` stands -0.257. Take `c1ccc(Nc2nc3ccccc3[nH]2)nc1`: the z-score is -0.125. Under `CCNC(=S)N1CCN(c2ccc([N+](=O)[O-])cc2)CC1` stands 0.99. Under `COc1ccc(C)cc1NC(=O)C(C)N(c1ccc(C)cc1)S(C)(=O)=O` (stereo not drawn) stands -0.357. As to `C=CCN(C(=O)CCC(=O)O)C1CC(=O)N(c2ccc(OC)cc2)C1=O` (stereo not drawn), the z-score is 0.193. In the case of `Cc1cccc(OCC(=O)NC(=S)N2CCCc3ccccc32)c1` it was active: 7.99; in that of `CC(c1nnc(SCC(=O)N2CCc3ccccc32)n1-c1ccc(Cl)cc1)N(C)C` (stereo not drawn), -0.315; in that of `CCOC(=O)c1sc(NC(=O)CSc2nnc(-c3ccco3)n2CC)c(C(=O)OCC)c1C`, -0.967. Under `CN(C)c1nc(SCc2ccc(Cl)cc2)nc2c1CCCC2` stands -0.153; under `Cc1ccccc1-c1nc2sc(-c3ccccc3)cc2c(=O)o1`, 0.00593. In the case of `CCC(=O)Nc1ccc(C(=O)OCc2ccccc2Cl)cc1` it was 0.488; in that of `CC(=O)N(Cc1ccco1)C1(C(=O)NC2CCCC2)CCCCC1`, -1.43; in that of `CC(=O)C1=C(NC(=O)c2ccccc2F)C[C@@H]2[C@H]1C2(C)C`, 0.568.

Consider `CCN1C(=O)/C(=C\N2CCCCCC2)SC1=S`, for which the z-score was -0.306. In the case of `O=C(CCSc1ccccc1)Nc1nc2c(s1)COc1ccccc1-2` it was -0.419; in that of `Cc1nc(CCNC(=O)Cc2ccc(F)cc2)cs1`, 0.29; in that of `COCCn1c(SCc2cccnc2)nnc1-c1c[nH]c2ccccc12`, -0.163. Under `CCCCNS(=O)(=O)c1ccc(OC)c(Cl)c1Cl` stands -0.317.

As for `Cn1c(SCc2ccc(Cl)cc2Cl)nc(C(F)(F)F)cc1=O`, the z-score was -0.551.

The compound `CCOC(=O)C1=C(C)NC(C)=C(C(=O)OCC)C1c1nc2ccccc2[nH]1` yielded a z-score of 0.241. Regarding `CC12CC(c3ccccc3O1)C(C(=O)N1CCOCC1)C(=O)N2` (stereo not drawn), the z-score is -0.461.

On to `O=C(CSc1nc2ccccc2s1)Nc1cc(S(=O)(=O)N2CCOCC2)ccc1O`, for which the z-score was -0.511. In the case of `CC(NC(=O)Nc1ccc2c(c1)OCO2)C1CCCO1` (stereo not drawn) it was 0.267; in that of `OC(COc1ccccc1)CSc1ncn[nH]1` (stereo not drawn), 0.139. Under `COC(=O)COc1ccsc1C(=O)OC` stands 1.11; under `O=C(Nc1nnc(SCc2ccccc2)s1)c1ccco1`, -0.221.

As to `CSc1nnc(CSc2cc(C)nc(N(C)C)n2)o1`, the z-score is -0.325. Under `Cc1cc(C)c(S(=O)(=O)N(CC(=O)N2CCOCC2)C2CCCCC2)c(C)c1` stands -0.653. In the case of `COc1cc(C(=O)OCn2nnc3ccccc3c2=O)cc(OC)c1OC` it was -0.433. Under `COc1ccccc1C(=O)NC(=S)NNC(=O)c1sc2ccccc2c1Cl` stands active: 3.35; under `CCC(Sc1nnc2c3ccccc3n(CC)c2n1)C(=O)Nc1sc2c(c1C#N)CCCC2` (stereo not drawn), 0.544; under `Cc1oc2ccc(NS(=O)(=O)c3ccccc3)cc2c1C(=O)Nc1ccccc1`, -0.597. For `CC(C(=O)NCC1(c2ccccc2)CCCC1)N1CCOCC1` (stereo not drawn), the z-score is -0.000325. Under `Cc1ccc(NC(=O)C2CCN(S(=O)(=O)c3cccc4nonc34)CC2)nc1` stands -0.164; under `CN1CCN(NC(=O)C23CC4CC(CC(C4)C2)C3)CC1`, -0.194.

With `CC(C)(C)NC(=O)CSC(=Nc1ccccc1F)NC#N`, the z-score is -0.194.

Take `O=c1cc(N2CCN(c3ccccc3)CC2)[nH]c(=O)n1-c1ccccc1Cl`: the z-score was -0.653. Under `NS(=O)(=O)c1ccc(CCNC(=O)CSc2ccc(Cl)cc2)cc1` stands -0.509.

`COc1cccc(-c2nc3ccccc3c(=O)n2NC(=O)c2cccnc2Cl)c1` had a z-score of -0.295.

On to `CC(C)NS(=O)(=O)c1ccc(NC(=O)Cc2cccs2)cc1`, for which the z-score was -0.81. In the case of `Nc1nnc(SCC(=O)N2CCN(Cc3ccccc3)CC2)s1` it was 0.349.

As for `CCCC(=O)Nc1nnc(SCC(=O)Nc2ccc3c(c2)OCO3)s1`, the z-score amounted to 0.114. Under `O=C(N/N=C\CCc1ccccc1)c1ccco1` stands 0.322; under `COc1ccc(-c2sc(NC(C)=O)nc2-c2ccccc2)cc1`, -0.156.

Compound `CN1CCC(Oc2ccccc2Sc2ccc(C(F)(F)F)cc2)CC1` had a z-score of 0.595.

Turning to `N#C/C(=C\c1cccc2ccccc12)c1nn(-c2ccccc2)c(N)c1C#N`, the z-score is -0.268. Under `Cc1[nH]c2ccccc2c1/C=N/Nc1nc(Nc2ccccc2)nc(N2CCOCC2)n1` stands -0.457; under `CCCC(C)C1C(C#N)=C(N)Oc2cc(C)oc(=O)c21` (stereo not drawn), -0.602; under `CCOC(=O)N1CCN(C(=O)CSCC(=O)Nc2nc(-c3ccc(OC)cc3)cs2)CC1`, -0.184. Under `O=C(N/N=C/c1ccco1)c1cc(-c2cccs2)[nH]n1` stands -1.21; under `COc1ccccc1N(CC(=O)Nc1ccc2c(c1)OCCO2)S(C)(=O)=O`, 0.517; under `NC(=O)CSc1nc2cc3c(cc2c(=O)n1CCCC(=O)NCc1ccc2c(c1)OCO2)OCO3`, 0.0633. The compound `CCn1c(SCc2cccc(C(=O)O)c2)nnc1-c1ccccc1` displayed a z-score of -0.651. For `CCOC(=O)c1ccc(NC(=S)N2CCSC2c2c(F)cc(F)cc2F)cc1` (stereo not drawn), the z-score was 0.137.

The compound `CCOc1nc(OCC)nc(-n2cc(-c3ccccc3)nn2)n1` returned a z-score of -0.118. In the case of `CCOC(=O)N1CCC(NC(=O)c2cc(C(=O)NCC(OC)OC)ccc2CO)CC1` it was -0.143; in that of `Cc1cc(C)nc(SCC(=O)NC2=NN=C(c3ccc(Br)cc3)CS2)n1`, -0.093; in that of `Clc1ccc(/C=N/Nc2nnc(-c3ncc[nH]3)c3ccccc23)cc1`, -0.105. For the compound `Cc1nn2c(-n3ccnc3)c3c(nc2c1-c1ccccc1)CCC3`, the z-score turned out to be 0.319. In the case of `CCOC(=O)Cc1csc(NC(=O)c2ccco2)n1` it was 0.153; in that of `c1cnc2ccc(C(c3nnnn3C3CCCCC3)N3CCN(C4CCCCC4)CC3)cc2c1` (stereo not drawn), 0.847; in that of `COc1ccc(C2CCCN2C(=O)Nc2ccccc2)cc1OC` (stereo not drawn), -0.326.

Compound `Cc1ccc(C(=O)N2CCN(c3ccc(C(F)(F)F)cn3)CC2)cc1` came in with a z-score of 0.0416. Turning to `CCN=c1scc(-c2cccs2)n1/N=C/c1cc(OC)ccc1O`, the z-score was 2.02. In the case of `COc1ccc(OC)c(NC(=O)c2ccc(NC(C)=O)cc2)c1` it was -0.453; in that of `Cc1ccc(S(=O)(=O)C(CCC(=O)c2ccc(Cl)cc2)C(N)=O)cc1` (stereo not drawn), -0.0882; in that of `O=CNCCCc1nc2ccccc2n1Cc1cccc2ccccc12`, -0.365. In the case of `CN(C(=O)c1ccccn1)c1nnc(-c2cnccn2)s1` it was -0.729. In the case of `Cc1cc(SCC(=O)OCC(=O)NC(C)c2ccccc2)c(C)cc1Br` (stereo not drawn) it was 0.0118. `COC(=O)c1ccsc1NC(=O)CSc1nnnn1Cc1ccccc1` had a z-score of -0.885.

`O=C(Cn1cnc([N+](=O)[O-])c1)NCc1ccc(F)cc1`: the z-score is -0.183.

`CCN(CC)C(=O)/C(=C/c1ccc(F)cc1)NC(C)=O` came in with a z-score of -0.104. `CCOc1cc2c3c(c1)C1(OCCO1)C(=O)N3C(C)(C)CC2C` (stereo not drawn) had a z-score of -0.0339. In the case of `COC(=O)C1=C(NC(=O)COc2ccc3ccccc3c2)CCS1` it was 0.534. In the case of `CC(C)c1nc(NCCN2CCOCC2)c(C#N)c2c1COC(C)(C)C2` it was -0.502. In the case of `CCn1c2ccccc2c2cc(/C=N/NC(=O)c3ccccc3)ccc21` it was -0.25; in that of `Cc1ccc(C(=O)NC2CCS(=O)(=O)C2)cc1S(=O)(=O)N1CCCCC1` (stereo not drawn), 0.0878; in that of `c1ccc(OCCCn2nnc(-c3ccncc3)n2)cc1`, -0.166. In turn, `CCc1ccccc1NC(=O)CSc1nnc([C@@H](NC(=O)OC(C)(C)C)C(C)C)o1` showed a z-score of 0.0357. `CCOc1oc(-c2ccc(OC)cc2)nc1C(F)(F)F` registered a z-score of 0.0304.

As for `O=c1/c(=C/c2ccco2)sc2n1CN(c1ccccc1)CN=2`, the z-score was -0.194. In the case of `Cc1ccc(C)c(S(=O)(=O)n2cnc3ccccc32)c1` it was 0.178; in that of `Cn1c(=O)[nH]c(=O)c2c1nc(Br)n2CCCSc1nc2ccccc2o1`, -0.621; in that of `Cc1ccc(N2C(=O)c3sc4nnc(C)c(=O)n4c3C2=O)cc1`, -0.285. In the case of `CCNc1nc(OC)nc(SCC(N)=O)n1` it was 0.428; in that of `CCOc1ccc(CN2CCCN(C)CC2)cc1`, -0.242. The compound `COc1ccc(C2(CNC(=O)Cc3ccccc3)CCCC2)cc1OC` displayed a z-score of -0.343. Under `CC(C)NC(=O)COC(=O)c1ccccc1Oc1ccccc1` stands -0.163; under `C=CCC(C(=O)OC)(C(=O)OC)c1ccc([N+](=O)[O-])cn1`, -0.167; under `CCCCN(CC)C(=O)Cc1cn(C)c2ccccc12`, 0.0814. Under `CCOC(=O)c1[nH]c(C)c(C(=O)N2CCN(c3ccccc3)CC2)c1C` stands 0.748. In the case of `CC(C)(C)c1nc(SCC(=O)Nc2ccc(N3CCOCC3)cc2)c2ccccc2n1` it was 0.799. On to `N#Cc1c2c(nc(N)c1-c1ccccc1)CCCCC2`, for which the z-score was -0.192. Under `Cc1cccc2sc(NC(=O)Cn3cccc3)nc12` stands active: 13.9. For the compound `O=C(/C=C/c1ccc(Br)o1)NC(c1ccccc1)c1ccccc1`, the z-score was -0.303. Under `c1ccc(N2CCN(c3nc(-c4cccs4)nc4ccccc34)CC2)cc1` stands 1.64. Under `O=C1CC(c2ccco2)CC2=C1C=Nc1ccccc1N2` (stereo not drawn) stands -0.37.

In the case of `Cc1ccc(C(C(=O)NCc2ccco2)N(C(=O)CNC(=O)c2cccs2)c2ccc(C)cc2)cc1` (stereo not drawn), the z-score is -0.558. In the case of `CS(=O)(=O)N(CC(=O)N1CCN(c2ccc(F)cc2)CC1)C1CCCCC1` it was 0.121; in that of `Cc1ccc(O)c(C(=O)c2cnc3c(c2)COc2ccc(C)cc2-3)c1`, -0.126; in that of `O=C(/C=C/c1ccco1)Nc1cccc(S(=O)(=O)N2CCOCC2)c1`, -0.375. In the case of `COc1ccc(-c2nnn(CC(=O)NC3CCCc4ccccc43)n2)cc1OC` (stereo not drawn) it was 0.303.

With `Cc1ccc(CNC(=O)c2ccc(OCC3CCCO3)cc2)cc1` (stereo not drawn), the z-score is -0.11. In the case of `NC1=NC(c2ccc(Br)cc2)n2c(nc3ccccc32)N1` (stereo not drawn) it was -0.2; in that of `Cc1ccc(C(=O)COC(=O)CCC(=O)Nc2ccccc2Cl)cc1[N+](=O)[O-]`, 0.194. In the case of `CCn1c(SCC(=O)Nc2nc(C)cs2)nnc1-c1cccnc1` it was 0.652. For `C=CCOC(=O)Nc1c(C(=O)OC)[nH]c2ccc(Cl)cc12`, the z-score is -0.103. Under `Cc1[nH]c(=O)[nH]c(=O)c1CSc1nnc(CCCCCNC(=O)OC(C)(C)C)o1` stands 0.723.
